Data taken from the supplement of paper PMC7826260.
The list shows a part of the results. The data describe in vitro nicking of single-stranded DNA by Rep domains for 1 h at 37 °C with 3 µM enzyme; only the middle of the 90-letter strands is printed. Numbers give uncut DNA relative to the enzyme-free pool, as log2; more negative means more cut, near 0 not cut, and no call is made. Counts are relative to all reads; values above 0 arise when much of the pool is cut.

Experiments:
Experiment in all cases: uncleaved DNA left, log2 of reads against the no-enzyme library (log2 ratio); higher = less cleavage (more negative = more Rep cleavage of the k-mer); sequences stand for … in CTCGTCCG…ACCGGAGA
[1] = system: T1, Rep nickase domain of Muscovy duck circovirus
T1 sequence (residues 1-111 of Rep, tag left off): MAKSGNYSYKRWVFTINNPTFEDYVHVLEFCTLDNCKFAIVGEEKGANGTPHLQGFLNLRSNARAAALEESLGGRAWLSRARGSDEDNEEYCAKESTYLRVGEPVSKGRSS
Description: (§1)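 A pool of 90-nt single-stranded DNAs with seven random bases just before the constant AC of the nick site (name = the seven bases) was cut by 3 µM recombinant His6-SUMO-tagged Rep nickase domain (300 nM DNA, 50 mM HEPES pH 8.0, 50 mM NaCl, 1 mM MnCl2, 1 h, 37 °C, three replicates). Uncut DNA was amplified and sequenced.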

[2] = system: T2, Rep nickase domain of banana bunchy top virus
T2 sequence (residues 1-94 of Rep, tag left off): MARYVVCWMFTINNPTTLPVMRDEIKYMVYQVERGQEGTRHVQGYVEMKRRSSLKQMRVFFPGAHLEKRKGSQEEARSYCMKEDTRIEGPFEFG
Description: as §1

[3] = system: T3, Rep nickase domain of cabbage leaf curl virus
T3 sequence (residues 1-116 of Rep, tag left off): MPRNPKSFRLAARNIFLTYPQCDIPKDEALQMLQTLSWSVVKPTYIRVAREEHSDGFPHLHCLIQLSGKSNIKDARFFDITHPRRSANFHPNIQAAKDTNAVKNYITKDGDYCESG
Description: as §1

[4] = system: T4, Rep nickase domain of chickpea chlorotic dwarf virus
T4 sequence (residues 1-124 of Rep, tag left off): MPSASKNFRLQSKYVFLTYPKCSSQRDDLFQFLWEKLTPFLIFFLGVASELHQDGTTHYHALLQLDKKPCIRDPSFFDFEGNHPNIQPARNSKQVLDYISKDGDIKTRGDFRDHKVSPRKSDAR
Description: as §1

[5] = system: T5, Rep nickase domain of faba bean necrotic yellows virus
T5 sequence (residues 1-98 of Rep, tag left off): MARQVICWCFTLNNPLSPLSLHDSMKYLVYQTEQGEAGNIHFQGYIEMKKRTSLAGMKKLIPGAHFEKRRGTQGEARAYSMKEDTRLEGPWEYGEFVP
Description: as §1

[6] = system: T6, Rep nickase domain of maize striate mosaic virus
T6 sequence (residues 1-117 of Rep, tag left off): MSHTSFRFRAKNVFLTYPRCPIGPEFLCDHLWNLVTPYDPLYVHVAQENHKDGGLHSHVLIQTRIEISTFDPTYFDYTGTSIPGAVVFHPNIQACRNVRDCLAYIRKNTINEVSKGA
Description: as §1

[7] = system: T7, Rep nickase domain of porcine circovirus 2
T7 sequence (residues 2-116 of Rep, tag left off): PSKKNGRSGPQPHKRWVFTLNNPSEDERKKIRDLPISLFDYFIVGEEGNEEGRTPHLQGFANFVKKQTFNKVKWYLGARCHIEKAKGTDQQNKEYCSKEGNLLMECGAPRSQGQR
Description: as §1

[8] = system: T8, Rep nickase domain of tomato golden mosaic virus
T8 sequence (residues 1-124 of Rep, tag left off): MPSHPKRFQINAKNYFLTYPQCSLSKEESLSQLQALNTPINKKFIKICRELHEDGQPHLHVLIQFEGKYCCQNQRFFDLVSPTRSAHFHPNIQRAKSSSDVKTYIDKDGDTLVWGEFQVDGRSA
Description: as §1

[9] = system: T9, Rep nickase domain of tomato yellow leaf curl virus
T9 sequence (residues 1-136 of Rep, tag left off): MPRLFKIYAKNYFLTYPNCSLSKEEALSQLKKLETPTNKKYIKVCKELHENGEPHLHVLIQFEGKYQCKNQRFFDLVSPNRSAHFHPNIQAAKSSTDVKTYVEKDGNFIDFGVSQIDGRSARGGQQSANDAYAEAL
Description: as §1

[10] = system: T10, Rep nickase domain of wheat dwarf virus
T10 sequence (residues 1-137 of Rep, tag left off): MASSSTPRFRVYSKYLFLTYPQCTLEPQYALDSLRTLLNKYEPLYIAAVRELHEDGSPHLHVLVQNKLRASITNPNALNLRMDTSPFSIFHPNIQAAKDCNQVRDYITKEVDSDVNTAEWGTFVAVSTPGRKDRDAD
Description: as §1

Sequence	uncleaved DNA left (log2) [1]	uncleaved DNA left (log2) [2]	uncleaved DNA left (log2) [3]	uncleaved DNA left (log2) [4]	uncleaved DNA left (log2) [5]	uncleaved DNA left (log2) [6]	uncleaved DNA left (log2) [7]	uncleaved DNA left (log2) [8]	uncleaved DNA left (log2) [9]	uncleaved DNA left (log2) [10]
GCGGGTT	-0.0521	0.0461	0.336	0.739	0.0194	1.47	0.03	0.0119	-0.0719	-0.00164
GTTCCGT	0.0451	0.0782	0.302	0.751	0.0476	1.08	0.138	0.0417	0.141	0.169
CCGGCGT	-0.058	-0.315	-0.814	-0.664	0.116	-0.54	-0.0165	-0.0924	-0.164	-0.219
GGGAAGC	0.0462	0.17	0.858	2.05	-0.0702	2.2	0.193	0.118	0.102	0.259
TACGAAG	0.0952	0.0757	-0.665	-0.686	0.0102	-0.905	0.26	0.0101	0.0286	-0.161
GTATGCT	-0.512	0.145	0.00818	0.247	0.011	0.328	-0.43	0.122	0.116	0.13
AGGCGCT	-0.0402	-0.082	-0.207	-0.405	-0.118	-0.286	-0.139	-0.101	-0.0643	-0.103
AAAGCCG	-0.039	-0.039	-0.866	-0.368	-0.0409	-1.15	0.124	-0.121	-0.0596	-0.0991
TAGCTGC	0.111	-0.0414	0.308	1.21	0.0762	1.2	0.177	0.0106	0.015	-0.011
CTAGAAA	0.132	0.201	0.191	0.134	0.11	-0.399	0.279	0.188	0.0318	0.211
ACATTGG	0.00457	0.0552	-0.769	-0.0333	0.0543	-1.02	0.174	-0.00257	0.16	-0.0269
TAGGGAG	0.22	0.0986	0.0721	0.408	0.0553	-0.101	0.276	0.0775	0.0113	0.00982
CTCAATG	-0.0177	-0.102	-0.661	-0.679	-0.021	-1.24	0.0452	-0.121	-0.0977	-0.13
GAATGGA	-0.026	0.0458	0.11	0.278	0.00504	0.101	-0.203	-0.0355	-0.0657	-0.00732
AGGGAAA	0.0158	0.0973	0.446	1.53	0.182	1.4	0.0709	0.0858	-0.0308	0.121
GCTCTAT	-0.0621	0.0629	0.147	0.255	0.0912	0.404	-0.0236	0.0427	-0.085	-0.0196
TTCGTTA	-0.239	-0.172	0.025	-0.889	-0.166	-0.461	-0.383	-0.108	-0.0716	-0.261
CTACGTT	-0.000469	-0.224	-0.99	-2.77	0.0359	-1.01	-0.662	-0.231	-0.0229	-0.742
AGAGGGA	0.124	0.131	0.453	1.04	0.097	1.25	0.202	0.17	0.0781	0.118
ACACATC	0.0075	-0.0239	-0.34	-0.351	0.0442	-0.927	0.037	0.0522	-0.0263	0.0123

Sequence	uncleaved DNA left (log2) [1]	uncleaved DNA left (log2) [2]	uncleaved DNA left (log2) [3]	uncleaved DNA left (log2) [4]	uncleaved DNA left (log2) [5]	uncleaved DNA left (log2) [6]	uncleaved DNA left (log2) [7]	uncleaved DNA left (log2) [8]	uncleaved DNA left (log2) [9]	uncleaved DNA left (log2) [10]
CTCTGGG	-0.0115	0.0262	-0.529	-0.472	0.0423	-0.938	0.0304	0.0879	0.064	-0.142
ATGCGCC	-0.0134	-0.151	-0.608	-0.644	-0.0657	-0.993	-0.0674	-0.22	-0.0651	-0.213
AACCGTG	0.124	0.0405	-0.552	-0.683	0.0638	-0.97	-0.12	0.103	0.0826	-0.146
GGCTCTG	-0.0335	0.0666	0.11	0.713	-0.0337	1.55	0.0275	0.0565	0.0656	-0.0168
ACGGAAA	-0.0426	0.0167	0.0205	0.317	-0.0311	-0.173	0.153	0.00208	-0.133	-0.0296
CCGTAGC	0.117	-0.0318	-0.2	-0.421	-0.0561	-0.815	0.0525	0.0114	-0.0394	-0.0855
CGCTGTG	0.079	-0.0796	-0.695	-0.263	-0.0359	-0.826	0.011	-0.0832	-0.0533	-0.0743
AATGGTA	0.114	-0.00626	0.172	0.705	-0.0129	1.15	-0.0459	0.0993	-0.0104	0.0342
CCAACAA	-0.0422	-0.168	-0.127	-1.44	0.037	-0.68	0.0262	0.0589	-0.0562	0.0546
TTTTTTT	-2.68	-0.623	0.0608	-2	-0.03	-0.381	-3.02	-0.0815	0.0791	-0.373
ACCTCTT	-1.51	-0.19	-0.589	-2.14	-0.0796	-0.341	-2.84	-0.0747	-0.296	-0.168
GTACTTA	0.0115	-0.062	0.279	0.642	-0.0675	1.56	-0.055	0.00382	0.0787	0.0296
GAACTGT	0.056	-0.0685	0.082	0.24	0.0236	1.17	-0.0175	0.0276	-0.0307	0.153
TGAAACT	0.0359	0.0552	0.326	-1.97	0.0457	0.857	-0.0665	0.14	0.0497	-0.00667
AGATGAC	0.0062	-0.148	-0.14	0.565	-0.0762	0.00308	0.0307	0.0116	-0.157	-0.0679
AGCTACG	-0.0263	0.0689	-0.13	-0.0424	-0.0424	-0.204	0.151	0.108	-0.0377	0.0284
CGCCGAA	0.00765	-0.119	-0.0555	-0.141	0.112	-0.389	0.00796	-0.159	-0.109	-0.0593
GCTACAA	-0.0383	0.108	0.23	0.29	-0.022	0.512	0.125	0.0831	0.0913	0.156
CCTAGCA	0.0188	0.0349	-0.372	-0.886	-0.152	-1.15	-0.00982	-0.159	-0.0049	-0.00572
CCATGAT	-0.393	-0.00202	-0.201	-0.157	-0.0825	0.121	-1.09	-0.176	-0.007	-0.026

Sequence	uncleaved DNA left (log2) [1]	uncleaved DNA left (log2) [2]	uncleaved DNA left (log2) [3]	uncleaved DNA left (log2) [4]	uncleaved DNA left (log2) [5]	uncleaved DNA left (log2) [6]	uncleaved DNA left (log2) [7]	uncleaved DNA left (log2) [8]	uncleaved DNA left (log2) [9]	uncleaved DNA left (log2) [10]
CAATAGG	-0.0642	-0.0025	-0.113	0.445	-0.0727	-0.323	-0.0162	0.0566	-0.147	0.0108
CCTGCAA	0.000978	0.0679	-0.229	-0.629	0.0763	-0.972	0.159	-0.0128	0.0208	-0.0252
AAGACTA	0.184	0.0358	0.115	0.242	-0.00525	1.33	0.0126	0.0456	-0.0213	0.0574
GCAGGCT	0.00134	-0.106	-0.138	-0.24	-0.101	-0.332	-0.139	-0.124	-0.0956	-0.163
AATTGTA	-2.93	-0.932	-0.608	-1.82	0.0455	-1.28	-3.87	-0.0374	0.0332	-0.0656
AAAGTCA	-0.00202	-0.0385	-0.256	-1.67	-0.11	-0.685	-0.0635	-0.0702	0.00143	-0.106
CTACGCT	0.082	-0.0126	-0.827	-2.34	0.0415	-0.936	-0.192	0.0139	0.0766	-0.356
TATTCAT	-3.65	-2.5	0.102	-1.02	-0.0365	0.629	-3.69	-0.0484	0.0193	0.0914
GGGCGAA	-0.0518	-0.0703	0.725	1.78	-0.00289	2.02	0.23	0.059	0.0316	0.116
CTTCCTG	-0.161	-0.157	-0.293	-0.91	-0.219	-0.719	-0.0703	-0.161	-0.0266	-0.0641
AAAGTGA	-0.0213	-0.0128	-0.174	-0.17	0.0356	-0.642	0.0111	-0.0693	-0.133	0.0149
CTCACGT	-0.117	-0.0607	-0.0682	-0.31	-0.0352	-0.342	-0.0832	-0.144	-0.0729	-0.181
AGGATAC	0.123	0.095	0.0277	0.306	0.176	-0.338	0.273	0.15	0.0161	0.165
GTCATAG	0.0824	0.173	0.219	0.826	0.101	1.35	0.237	0.141	-0.00753	0.0731
GAATGTA	-0.399	0.195	-0.243	-0.661	0.188	0.543	-1.45	0.0259	0.14	0.0325
CAATACC	-0.0758	0.0137	-2.99	-2.91	-0.0373	-1.36	-0.857	-0.762	-0.0821	-0.672
GCGGGGG	0.000869	-0.0407	0.245	0.691	0.0393	0.939	0.175	-0.0128	-0.0597	0.00985
AGTTTGA	0.00178	-0.0945	-0.0214	0.0602	0.0854	-0.503	-0.346	0.0448	0.0704	-0.012
GATGCAC	0.0607	0.0395	0.085	0.525	-0.0377	-0.0982	0.0962	0.0491	0.0919	0.0562
TCATGCG	-0.0751	-0.0406	-0.0499	1.18	0.0165	0.96	0.067	-0.00805	-0.0858	-0.116
